Measurements as given in the supplement of paper PMC8047034.
Structures can show the parent of a compound that is named as a salt. The list shows a part of the results. Repeats are few or missing, and single values can be far off.

Assays:
[1] = test system: OVCAR4; assay: log2 surviving fraction (library drug vs vehicle, or drug + carboplatin vs carboplatin alone; relative to plate median); ovarian cancer lines: OVCAR4 is platinum-sensitive and Ov4Carbo platinum-resistant; higher = more cell survival; conditions: library drug concentration 10 µM, 7 days
[2] = test system: Ov4Carbo; assay: as above; conditions: library drug concentration 10 µM, 7 days

SMILES | log2 surviving fraction ([1]; carboplatin co-treatment 0 µM) | log2 surviving fraction ([1]; carboplatin co-treatment 5 µM) | log2 surviving fraction ([2]; carboplatin co-treatment 0 µM) | log2 surviving fraction ([2]; carboplatin co-treatment 5 µM)
CC1(C)S[C@@H]2[C@H](NC(=O)C(C(=O)O)c3ccccc3)C(=O)N2[C@H]1C(=O)O (some centres not stated) [Carbenicillin disodium] | -0.127 | -0.15 | 0.751 | 0.591
COC(=O)[C@H](c1ccccc1Cl)N1CCc2sccc2C1 [Clopidogrel (Plavix)] | 1.11 | -0.441 | -0.263 | 0.244
CO[C@H]1/C=C/O[C@@]2(C)Oc3c(C)c(O)c4c(c3C2=O)C2=NC3(CCN(CC(C)C)CC3)NC2=C(NC(=O)/C(C)=C\C=C\[C@H](C)[C@H](O)[C@@H](C)[C@@H](O)[C@@H](C)[C@H](OC(C)=O)[C@@H]1C)C4=O [Rifabutin (Mycobutin)] | -4.24 | -0.482 | -0.962 | -1.14
O=C(O)CCNC(=O)c1ccccc1 [Betamipron] | 0.45 | -0.207 | -0.307 | -0.724
CCCN1CCCC[C@H]1C(=O)Nc1c(C)cccc1C [Ropivacaine HCl] | 0.226 | 0.646 | -0.517 | -0.748
O=C(N[C@H](CO)[C@H](O)c1ccc([N+](=O)[O-])cc1)C(Cl)Cl [Chloramphenicol (Chloromycetin)] | 0.159 | 0.108 | 0.0208 | 0.097
CCCc1cc(C(N)=S)ccn1 [Protionamide (Prothionamide)] | 0.322 | 1.1 | 0.255 | 0.169
Nc1cccc2c1C(=O)N(C1CCC(=O)NC1=O)C2=O (configuration not stated) [Pomalidomide] | 1.11 | 0.0796 | 0.729 | -0.000482
Nc1ccc(S(N)(=O)=O)cc1 [Sulfanilamide] | 0.114 | 0.531 | 1.28 | 0.674
O=C1CCc2ccc(OCCCCN3CCN(c4cccc(Cl)c4Cl)CC3)cc2N1 [Aripiprazole (Abilify)] | -8.29 | -0.383 | -7.03 | -1.16
Nc1c2ccccc2nc2ccccc12 [9-Aminoacridine] | -9.4 | -7.49 | -8.12 | -7.7
C=Cc1c(C)c2cc3nc(cc4[nH]c(cc5nc(cc1[nH]2)C(C)=C5CCC(=O)O)c(CCC(=O)OC)c4C)[C@@]1(C)C3=CC=C(C(=O)OC)[C@H]1C(=O)OC [Verteporfin (Visudyne)] | -0.752 | -1.4 | -3.44 | -1.04
CC(=O)OCC(=O)[C@@]1(O)[C@H](C)C[C@H]2[C@@H]3CCC4=CC(=O)C=C[C@]4(C)[C@@]3(F)[C@@H](O)C[C@@]21C [Dexamethasone acetate] | 0.932 | 1.18 | 1.36 | 0.734
CN1CC(=O)NC1=N [Creatinine] | 0.546 | 0.769 | 1.1 | 1.86
COC(=O)Nc1nc2cc([S+]([O-])c3ccccc3)ccc2[nH]1 (configuration not stated) [Oxfendazole] | -0.536 | -4.78 | -1.69 | -0.205
CC[C@H](C)C[C@H](C)CCCCCCCCC(=O)N[C@H]1C[C@@H](O)[C@@H](NCCN)NC(=O)[C@@H]2[C@@H](O)CCN2C(=O)[C@H]([C@H](O)CCN)NC(=O)[C@H]([C@H](O)[C@@H](O)c2ccc(O)cc2)NC(=O)[C@@H]2C[C@@H](O)CN2C(=O)[C@H]([C@@H](C)O)NC1=O [Caspofungin acetate] | 0.721 | 0.876 | 0.428 | 1.4
CC(C)(C(=O)O)c1ccc(C(O)CCCN2CCC(C(O)(c3ccccc3)c3ccccc3)CC2)cc1 (configuration not stated) [Fexofenadine HCl] | -0.645 | 0.665 | -0.146 | -0.191
CCOC(=O)[C@H](CCc1ccccc1)N[C@@H](C)C(=O)N1CCC[C@H]1C(=O)O [Enalapril maleate (Vasotec)] | -8.54 | 0.116 | 0.958 | 0.608
CNC1CC(N)C(O)C(OC2OC(CO)C(O)C3OC4(OC(C(N)CO)C(O)C(O)C4O)OC23)C1O (configuration not stated) [Hygromycin B] | -0.837 | -1.11 | -0.462 | 0.0743
Cc1cn([C@H]2C[C@H](N=[N+]=[N-])[C@@H](CO)O2)c(=O)[nH]c1=O [Zidovudine (Retrovir)] | -0.47 | -0.315 | -0.665 | -1.44
CCN(CC)CC#CCOC(=O)C(O)(c1ccccc1)C1CCCCC1 (configuration not stated) [Oxybutynin (Ditropan)] | 0.519 | -0.36 | -0.553 | -0.342
NS(=O)(=O)Cc1noc2ccccc12 [Zonisamide] | 0.599 | 0.768 | 1.04 | 0.21
CC1(C)[C@H](C(=O)O)N2C(=O)C[C@H]2S1(=O)=O [Sulbactam] | -0.964 | -1.01 | 0.279 | -9.86
O=[N+]([O-])c1ccc([As](=O)(O)O)cc1 [Nitarsone] | 0.528 | 0.0166 | -0.255 | -2.77
O=C(O)c1cccnc1Nc1cccc(C(F)(F)F)c1 [Niflumic acid] | 1.04 | 0.417 | 0.424 | -0.184
C[N+](C)(CCOc1ccccc1)Cc1ccccc1.O=C([O-])c1cc2ccccc2cc1O [Bephenium Hydroxynaphthoate] | 0.275 | -0.696 | 0.254 | 1.49
Cc1c(OCC(F)(F)F)ccnc1C[S+]([O-])c1nc2ccccc2[nH]1 (configuration not stated) [Lansoprazole] | -0.351 | -0.497 | -1.26 | -1.81
CCCCC1C(=O)N(c2ccccc2)N(c2ccccc2)C1=O [Phenylbutazone (Butazolidin, Butatron)] | 0.528 | -0.417 | -0.0394 | 0.44
